B1: LINE1-full (parent)
chain: UACGUAGGUGGUUUUCCCCUGAUAGUGCUAAGGGGGCCUGGAAGUUUGGACUGGGCAGAGCUCAACACAGCGUGGCAAAGUGGCUGUGGCUAGACUGCCUCUCUGGAUUCCUCGUCACUCAGCAGGGCAUCUCUGAGAGAAAUGCC

Read counts are not given, so values of variants with three or more changes are uncertain.

This series covers variants of B1. Kind of series: self-cleavage, relative activity (ratio to wild type); higher = more cleavage; in vitro, sequencing; the parent is a self-cleaving ribozyme.
Turning to UACGUAGGUGGUUUUCCCCUGAUAGUGCUAAGGGGGCCAGGAAGUUUGGACUGGGCAGAGCUCAGCACAGCGUGGCAAAGUGGCUGUGGCUAGACUGCCUCUCAGGAUUCCUCGACACUCAGCAGGGCAUCUCCGAGAGAAAUGCC [U39A A65G U104A U115A U134C], the self-cleavage was 0.16. For UACGUAGGUGGUUUUCCCCUGAUAGUGCUACGGGGGCCUGGAAGUUUGGACUGGGCAGAGCUCAACACAGCGUGGCAAAGUGGCUGUGGCUAGACUGCCUCUCAGGAUUCCUCGUCACUCAGCAGGGCAUCCCUGAGAGAAAUGCC [A31C U104A U132C] the value was 1.46; for UACGUAGGUGGUUUUCCCCUGAUGGUGCUAAGGGGGCCUGGAAGUUCGGACAGGGCAGAGCUCAACACAGCGUGGCAAAGUGGCUGUGGCUAGACUGCCUCUCUGGAUUCCUCGUCACUCAGCAGGGCAUCUCCGAGAGAAAUGCC [A24G U47C U52A U134C], 0.59. For UACGUAGGUGGUUUUCCCCUGAUAGUGCUAAGGGGGCCUGGGAGCUUGGACUGGGCAGAGCUCAACACAGCGUGGCAGAGUGGCUGUGGCUAGACUGCCUCUCUGGAUUCCUCGUCACUCAGCAGGGCAACUCUGAGAGAAAUGCC [A42G U45C A78G U130A] the value was 0.84; for UACGUAGGUGGUUUCCCCCUGAUGGUGCUAAGGGGGCCUGGAAGUUUGGACUGGGCAGAGCUCAACACAGCGUGGCAGAGUGGCUGUGGCCAGACUGCCUCUCUGGAUUCCUCGUCACCCAGCAGGGCAUCUCUGAGAGAAAUGCC [U15C A24G A78G U91C U119C], 0; for UACGUAGGUGGUUUUCCCCUGAUAGUGCUAAGGGGGCCUGGAAGUUUGGACUGGGCAGAGCACAGCACUGCGUGGCAAAGUGGCUGUGGCUAGACCGCCUCUCUGGAUUCCUCGUCACCCAGCAGGGCAUCUCUGAGUGAAAUGCC [U62A A65G A69U U96C U119C A138U], 0. For UACGUAGGUGGUUUUCCCCUGAUGGUGCUAAGGGGGCCUGGAAGUUUGGACUGGGCAGAGCUCAACACAGCGUGGCAAAGUGGCUGUGGCUAGACUGCCCCUCUGGAUUCCUCGUCGCUCAGCAGGGCAUCUCUGAGAGAAAUGCC [A24G U100C A117G] the value was 1.15. Consider UACGUAGGUGGUUGUCCCCUGAUAGUGCUAAGGGGGCCUGGAAGUUCGGACUGGGCAGAGCUCAACACGGCGUGGCAAAGUGGCUAUGGCUAGACUGCCUCUCUGGAUUUCUCGUCACUCAGCAGGGCAUCUCUGAGAGAAAUGCC [U14G U47C A69G G86A C110U], for which the self-cleavage came out at 0.1. Consider UACGUAGGUGGUUUUCCCCUGAUAGUGCUAAGGGGGCCAGGAAGUUUGGACUGGGCGGAGCUCAACACAGCGUGGCUAAGUGGCUGUGGCUAGACUGCCUCUCUGGAUUCCUCGCCACUCAGCAGGGCAUCUCUGAGAGAAAUGCC [U39A A57G A77U U115C], for which the self-cleavage was 0.71.

Consider UACGUAGGUGGUUUUCCCCUGAUAGUGUUAAGGGGGCCUGGAAGUUUGGACUGGGCUGAGCUCAACGCAGCGUGGCAAAGUGGCUGUGGCUAGACUGCCUCUCUGGAUUCCUAGUCACUCAGCAGGGCAUCUCUGAGAGAAACGCC [C28U A57U A67G C113A U143C], for which the self-cleavage was found to be 0.08.

Regarding CACGUAGGUGGUUUUCCCCUGAUAGUGCUAAGGGGGCCUGGAAGUUUGGGCUGGGCAGAGCUCAACACAGCGUGGCAAAGUGGCUGUGGCUAGACUGCCUCUCUGGAUUCCUCGACACUCAGCAGGGCAUCUCUGAGAGAAAUGCC [U1C A50G U115A], the self-cleavage worked out at 1.39.

Take UAUGUAGGUGGUUUUCCCCUGGUAGUGCUAAGGGGGCCUGGAAGUUUGGACUGGGCAGAGCUCAACACAGCGUGGCAAAGUGGCUGUGGCUAGACUGCCUCUCUGGAUUCCUCGUCACUCAGCAGGGCAUCUCUGAGAGAGGUGCC [C3U A22G A141G A142G]: the self-cleavage was determined as 0.45. For the variant UACGUAGGUGGUUUUCCCCUGAUAGUGCUAAGGGGGCCUGGAAGUUUGGACUGGGCAGAGCUCGACACAGCGUGGCAAAGUGGCUGUGGCUUGACUGCCUCUCUGGAUUCCUCGUCACUCGGCAGGGCAUCUCUGAGGGAAAUGCC [A64G A92U A121G A138G], the self-cleavage was determined as 1.38.

In the case of UGCGUAGGUGGUUUUCCCCUGAUAGUGCUAAGGGGGCCAGGAAGUUUGGAAUGGGCAGAGCUCAACACAGCGUGGCAGAGUGGCUGUGGCUAGACUGCCUUUCUGGAUUCCUCGUCACUCAGCAGGGCAUCUCUGAGAGAAAUGCC [A2G U39A C51A A78G C101U], the self-cleavage worked out at 1.37. UACGUAGGUGGUUUUCCCCUGAUAGUGCUGGGGGGGCCUGGAAGUUUGGACUGGGCAGAGCUCAACUCAGCGUGGCAAAGUGGCUGUGGCUAGACUGCCUCUCUGGAUUCCUCGUCACUCAGCAGGGCAUCUCUGAGAGAAAUGCC [A30G A31G A67U]: the self-cleavage is 0.

In the case of UACGUAGGUGGUUACCCCCUGAUAGUGCUAUGGGGGCCUGGAAGUUUGGACUGGGCAGAGCUCAACACAGCGUGGCAAAGUGGCUGUGGCUAGACUGCCUCUCUGGAUUCCUCGUCACUCAGCAGGGCAUCUCUGAGAGAAAAGCC [U14A U15C A31U U143A], the self-cleavage worked out at 1.28.

Consider UACGUAGGAGGGUCUCCCCUGAUAGUGCUAAGGGGGCCUGGAAGUUUGGACUGGGCAGAGCUCAACACAGCGUGGCAAAGUGGCUGUGGCUAGACUGCCUCUCUGGAUUCCUCGUCACUCAGCAGGGCAUCUCUGAGAGAAAUGCC [U9A U12G U14C], for which the self-cleavage was 0.65. For UACGUAGGUGGCUUUCCCCUGAUAGUGCUAAGGAGGCCUGGAAGUUUGGACUGGGCAGAGCUCAGCACAGCGUGGCAAAGUGGCUGUGGCUAGACUGCCUCUCUGGAUUCCUCGUCACUCAGCAGGGCAUCUCUGAGAGAAAUGCC [U12C G34A A65G], the self-cleavage worked out at 0.25. Turning to UACGUAGGUGGCUUUCCCCUGAUAGUGCUAAGGGGGCCUGGAAGUUUGGACUGGGCAGAGCUCAACACAGCGUGGCAAAGUGGCUGUGGCUAGACUGCCUCUCUGGACUCCUCGUCACUCAGCAGGGCAUCCCUGAGAGAAAUGCC [U12C U108C U132C], the self-cleavage came to 1.6. For UACGUAGGUGGUUUUCCCCUGAUAGUGCUAAGGGGACCUGGAAGUUUGGACUGGGCAGGGCUCAACACAGCGUGGCAAAGUGGCUGUGGCUAGGCUGCCUCUCUGGAUUCCUCGUCACUCAGCAGGGCAUCUCUGAGAGAAAUGCC [G36A A59G A94G] the value was 0.2.

The values above are taken from the RNAGym collection of RNA variant scans (doi:10.7554/elife.90254).
